In US20250136702A1, “HUMAN LIFR ANTIGEN BINDING PROTEIN, PREPARATION METHOD THEREFOR, AND APPLICATION THEREOF” (NONA BIOSCIENCES (SUZHOU) CO., LTD., priority 2020, published 2025):

Experiments:
monkey LIFR-ECD = experiment: ELISA binding of antibodies to monkey LIFR-ECD at the protein level
Procedure: (§1) The binding ability of the 15 antibodies prepared in examples 1-4 of the present invention to the LIFR-ECD protein was detected based on the ELISA assay method. The binding affinity of different antibodies was determined by comparing their dose response binding curves to LIFR-ECD protein. The specific experimental process is as follows: First, human LIFR-ECD, monkey LIFR-ECD and mouse LIFR-ECD proteins are diluted to a concentration of 1 μg/mL, added to a 96-well plate (100 μL per well) and placed at 4° C. overnight. The 96-well plates were washed three times with PBST solution and then placed at 37° C. for 1 h with the addition of 2% BSA in PBS solution. Antibody seris dilution is prepared and (100 nM, 10-fold-dilution), added to a 96-well plate and incubate at 37° C. for 1 h. After washing three times with PBST solution, add anti-human IgG Fc-HRP secondary antibody (for 5000× dilution) and incubate at 37° C. for 30-60 min. After washing three times with PBST solution, add TMB color development solution for 5-15 minutes, and then add termination solution to ternimate the color development.

mouse LIFR-ECD = target: T1, mouse LIFR-ECD (Mus musculus, UniProt P42703); experiment: ELISA binding of antibodies to mouse LIFR-ECD at the protein level
T1 construct: mouse LIFR-ECD proteins
T1 sequence (P42703 44-828 limits assumed): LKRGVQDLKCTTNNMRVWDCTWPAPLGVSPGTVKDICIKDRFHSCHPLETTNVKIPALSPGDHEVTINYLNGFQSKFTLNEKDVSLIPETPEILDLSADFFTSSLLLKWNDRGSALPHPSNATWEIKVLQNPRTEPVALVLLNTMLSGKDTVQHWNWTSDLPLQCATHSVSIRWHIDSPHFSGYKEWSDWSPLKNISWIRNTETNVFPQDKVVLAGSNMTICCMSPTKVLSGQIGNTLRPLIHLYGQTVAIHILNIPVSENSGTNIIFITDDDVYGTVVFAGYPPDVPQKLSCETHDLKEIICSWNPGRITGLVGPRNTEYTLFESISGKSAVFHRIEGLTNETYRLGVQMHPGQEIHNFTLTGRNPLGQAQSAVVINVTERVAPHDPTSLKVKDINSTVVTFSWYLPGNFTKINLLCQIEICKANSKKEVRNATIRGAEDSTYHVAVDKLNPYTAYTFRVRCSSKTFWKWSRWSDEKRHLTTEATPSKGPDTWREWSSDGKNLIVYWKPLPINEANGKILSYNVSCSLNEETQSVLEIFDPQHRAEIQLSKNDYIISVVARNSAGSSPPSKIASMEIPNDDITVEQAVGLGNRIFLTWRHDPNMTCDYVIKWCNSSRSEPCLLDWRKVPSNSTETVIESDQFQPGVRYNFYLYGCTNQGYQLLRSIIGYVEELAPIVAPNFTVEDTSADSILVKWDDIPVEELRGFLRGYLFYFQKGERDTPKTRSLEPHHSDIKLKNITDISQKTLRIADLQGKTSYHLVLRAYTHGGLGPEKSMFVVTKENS
Procedure: as §1

[1] = target: T2, human LIFR expressed on the surface of 293T cells (Homo sapiens, UniProt P42702); experiment: Flow cytometry binding to HEK293T-huLIFR cells; conditions: median fluorescence curve span
T2 construct: expressed in transfected cells; host or cells: HEK293T, lentiviral transduction (lenti-huLIFR), puromycin selection, monoclonal line
T2 sequence (P42702 45-1097): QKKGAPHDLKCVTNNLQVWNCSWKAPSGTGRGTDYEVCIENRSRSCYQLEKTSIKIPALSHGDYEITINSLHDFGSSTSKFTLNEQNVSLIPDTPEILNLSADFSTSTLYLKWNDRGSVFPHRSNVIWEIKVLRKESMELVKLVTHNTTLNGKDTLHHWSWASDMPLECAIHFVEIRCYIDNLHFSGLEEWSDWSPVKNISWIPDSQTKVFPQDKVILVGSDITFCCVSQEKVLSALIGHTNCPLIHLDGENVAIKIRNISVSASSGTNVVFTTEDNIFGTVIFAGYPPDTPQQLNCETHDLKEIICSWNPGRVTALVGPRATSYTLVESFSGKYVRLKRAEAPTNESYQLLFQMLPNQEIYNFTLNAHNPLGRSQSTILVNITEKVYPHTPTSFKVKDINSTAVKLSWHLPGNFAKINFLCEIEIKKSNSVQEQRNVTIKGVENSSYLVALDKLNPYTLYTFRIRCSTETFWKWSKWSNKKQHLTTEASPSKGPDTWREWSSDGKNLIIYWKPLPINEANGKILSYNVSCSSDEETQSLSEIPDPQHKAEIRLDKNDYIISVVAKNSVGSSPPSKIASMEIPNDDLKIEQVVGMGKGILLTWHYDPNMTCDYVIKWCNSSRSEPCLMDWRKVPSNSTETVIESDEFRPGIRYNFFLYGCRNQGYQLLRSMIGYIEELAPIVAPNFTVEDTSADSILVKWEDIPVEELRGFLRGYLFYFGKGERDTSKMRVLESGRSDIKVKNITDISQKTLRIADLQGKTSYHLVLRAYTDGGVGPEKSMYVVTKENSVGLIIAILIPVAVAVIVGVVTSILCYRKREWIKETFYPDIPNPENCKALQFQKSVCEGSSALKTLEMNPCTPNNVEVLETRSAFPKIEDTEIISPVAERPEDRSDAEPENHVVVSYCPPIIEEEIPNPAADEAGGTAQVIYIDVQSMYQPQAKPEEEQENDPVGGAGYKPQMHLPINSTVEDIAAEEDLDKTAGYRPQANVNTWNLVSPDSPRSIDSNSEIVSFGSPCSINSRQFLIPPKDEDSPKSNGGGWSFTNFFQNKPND
Procedure: The flow cytometry assay was used to detect the binding affinity of the five antibodies PR300516, PR301127, PR301152, PR301168, and PR301211 prepared in examples 1-4 to human LIFR expressed on the surface of 293T cells or human LIFR/gp130 heterodimer. The binding ability of different antibodies was determined by comparing the binding curves of human LIFR expressed on the surface of 293T cells or human LIFR/gp130 heterodimer.
The specific experimental process is: (1) Use lenti-huLIFR and lenti-LIFR/gp130 lentivirus to infect HEK293T cells, screen the infected cells with puromycin to obtain a stable cell pool: HEK293T-huLIFR and HEK293T-huLIFR/gp130; (2) Perform subclone screening on the stable cell pool to obtain a monoclonal cell line that highly expresses the target gene; (3) make series dilution of test antibody and incubate with the monoclonal cell line at 4° C. for 30 minutes, and wash three times with PBS, use FITC-labeled goat anti-human secondary antibody to incubate with 4° C. for 30 min, wash with PBS three times again, resuspend the cells in 100 μL FACS buffer; (4) The EC50 and the peak of the curve were compared using the logarithm of the antibody concentration with a base of 10 as the horizontal coordinate and the median fluorometric value of one channel as the vertical coordinate.

human LIFR-ECD = target: T3, human LIFR-ECD (Homo sapiens, UniProt P42702); experiment: ELISA binding of antibodies to human LIFR-ECD at the protein level
T3 construct: The extracellular region (1-833 a.a.) of recombinant human LIFR protein; His tag; made in house; host or cells: HEK293 (transient transfection, purified from culture supernatant)
T3 sequence (P42702 45-833): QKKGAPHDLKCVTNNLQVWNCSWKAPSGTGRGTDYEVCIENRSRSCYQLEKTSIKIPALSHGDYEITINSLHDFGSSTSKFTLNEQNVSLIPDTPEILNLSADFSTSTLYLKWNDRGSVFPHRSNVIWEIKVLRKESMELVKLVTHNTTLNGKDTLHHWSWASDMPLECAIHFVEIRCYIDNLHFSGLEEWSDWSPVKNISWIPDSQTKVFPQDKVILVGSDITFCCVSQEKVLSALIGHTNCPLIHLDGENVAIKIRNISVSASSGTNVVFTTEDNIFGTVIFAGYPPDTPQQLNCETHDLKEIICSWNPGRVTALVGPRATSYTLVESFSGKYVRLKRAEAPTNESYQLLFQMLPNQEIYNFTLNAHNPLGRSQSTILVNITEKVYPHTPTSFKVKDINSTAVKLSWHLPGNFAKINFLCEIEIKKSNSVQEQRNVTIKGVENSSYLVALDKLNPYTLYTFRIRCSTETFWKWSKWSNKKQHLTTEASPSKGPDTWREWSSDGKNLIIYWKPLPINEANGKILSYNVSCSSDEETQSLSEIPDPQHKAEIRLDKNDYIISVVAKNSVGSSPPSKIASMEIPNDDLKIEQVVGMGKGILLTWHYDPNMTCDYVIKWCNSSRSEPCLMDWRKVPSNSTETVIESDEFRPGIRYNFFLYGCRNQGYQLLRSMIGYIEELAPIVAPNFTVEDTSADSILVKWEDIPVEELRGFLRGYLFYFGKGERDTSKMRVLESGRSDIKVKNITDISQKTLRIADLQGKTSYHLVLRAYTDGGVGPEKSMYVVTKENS
Procedure: as §1

binding ability to monkey LIFR-ECD protein (in words) (monkey LIFR-ECD): have binding ability
cross-binding to mouse LIFR-ECD protein (in words) (mouse LIFR-ECD): can cross-binding
Span [1]: 237
binding ability to human LIFR-ECD protein (in words) (human LIFR-ECD): have binding ability
B1: PR301127: fully human anti-LIFR IgG1 antibody; VH SEQ ID NO: 58, VL SEQ ID NO: 66, HC SEQ ID NO: 82, LC SEQ ID NO: 90 (antibody)
heavy: EVQLLQSGGGLVQPGGSLRLSCAASGFTFSNYAMTWVRQAPGKGLEWVSTISGSGAFTYYADAVKGRFTISRVNSKNSLDLQMNSLRAEDTAVYYCAKGGILTGFDNWGQGTLVTVSS[here human IgG1 constant region without letters]
light: DIQMTQSPSTLSASVGDRVTITCRASQSISSWLAWYQQKPGKAPKLLIYKASSLESGVPSRFSGSGSGTEFSFTISSLQPDDFATYYCQQYKSFSPGGLTFGGGTKVEIKRTVAAPSVFIFPPSDEQLKSGTASVVCLLNNFYPREAKVQWKVDNALQSGNSQESVTEQDSKDSTYSLSSTLTLSKADYEKHKVYACEVTHQGLSSPVTKSFNRGEC
